In all, about 33,000 sequences were measured (“E-score (-0.5 to 0.5)”: median about -0.04, highest 2% from about 0.36 on). This is one part of the list.
molecular target: T1, Hmlalpha2 (UniProt P0CY09); assay: PBM E-score (8-mer binding enrichment) (E-score (-0.5 to 0.5)); higher = stronger / more preferred TF binding; most listed sequences are background and not binding sites; details: protein concentration: 200 nM; construct: GST-full length
T1 sequence: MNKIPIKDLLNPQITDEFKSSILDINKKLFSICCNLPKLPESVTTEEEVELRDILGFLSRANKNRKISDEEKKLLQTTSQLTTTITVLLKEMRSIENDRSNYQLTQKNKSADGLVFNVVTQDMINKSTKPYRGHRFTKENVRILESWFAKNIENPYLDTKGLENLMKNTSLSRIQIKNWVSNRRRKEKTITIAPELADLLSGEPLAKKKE
Procedure, shortened: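 E-scores (a modified Wilcoxon-Mann-Whitney statistic) were assigned by the Universal PBM Analysis Suite to every ungapped eight-base word pooled with its reverse complement. The input came from universal all-10-mer Agilent arrays made double-stranded by primer extension and probed with GST-tagged yeast transcription factors at about 100-200 nM. Fluorescent anti-GST detected bound protein, and masliner normalised the scans.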

Sequence | PBM E-score
CGATCCAG | -0.137
AGGTGGAT | -0.178
ACGATGAT | -0.0322
CTTTTCTA | -0.207
ATCAGTTA | 0.223
GACTAAGA | -0.083
AAGCGGAT | -0.124
AAGACGTA | 0.163
ATGAGGTA | 0.136
ATAAAAAA | 0.135
CGTGGCGA | -0.198
TCCGCACA | -0.139
CACTCCTA | -0.0161
AACGTTAG | 0.0576
GGGTACTA | 0.134
CGGTTCAC | -0.197
CTAAATTC | -0.0565
ATTCCACG | 0.00592
TGACACCA | -0.0928
GTGTCTGA | -0.041
AGTGGCGA | -0.145
GCAACATA | 0.219
CGGAAGCC | -0.151
GCGAAGAA | -0.0224
GTGTCCTA | 0.0274

Sequence | PBM E-score
AGTAGTGC | -0.153
GGCGGCAA | -0.158
ATGGCCGA | 0.0453
GCCTAAAC | -0.0969
CGGCCTGC | -0.0493
TCGGGTAA | 0.145
AGCGCGTG | 0.107
GCGGAGAC | -0.0477
GGGATGAC | -0.259
GAACATAA | 0.191
CGTCATAG | -0.242
CCAGCTGG | -0.0862
TCACCGCA | -0.093
AACCGCGA | 0.0922
AGGGCGAC | -0.233
CCACCTCC | -0.239
ACTTCCGA | -0.0716
ACCGTCAA | -0.0762
GAATACGC | 0.357
CGTTCAGC | -0.159
AGGCCCAC | -0.272
AAGCCGAC | -0.155
AACTTGGA | -0.0733
CGGCTGTA | -0.109
CTCCTGAA | -0.256

Sequence | PBM E-score
AAGATACC | -0.0459
AGACGTAA | 0.301
AACCGAAG | -0.0371
GCCCTGCA | -0.167
CCTGCGAG | -0.0862
GCTAGACA | 0.0886
GGATAGAA | -0.0372
AGGTAACG | -0.00149
AAGGGCGT | -0.0667
CATTTTCG | -0.0604
CACTCTCG | 0.0218
ACAGGCTA | -0.0231
ACCGAGAT | -0.117
TGATTAAA | 0.133
ATTTTAAG | 0.109
CGTGATAG | -0.035
CATTACCC | -0.00064
CGGTTACA | 0.367
CTAAACTA | -0.0708
CATCGCCC | -0.116
CGCCCAAG | -0.181
TCGAATAA | -0.121
CCAGACAC | -0.0987
CTCGGTCC | -0.218
CCCGTTTC | -0.125

Sequence | PBM E-score
AGGTGCCC | -0.192
CAGGATAG | 0.0086
CAAACTAG | 0.0172
ATGAACAT | 0.323
AGAAAGAG | -0.0941
GAACAGTC | -0.323
ATCTTGGC | -0.22
AAGTAATC | 0.36
CCATGCCA | -0.0773
ATTCTCGC | -0.0899
CAAGGTCA | -0.102
AGTGAAAG | -0.0314
ATCTTTCC | -0.136
ATGTGTGA | 0.202
GATACGTA | 0.255
AACATATC | 0.316
CGGGAGAC | -0.221
GCTCGGGA | -0.321
AAGGGCGA | -0.0762
AGGAGCTG | -0.275
ACAGGGCG | 0.0441
CACACTCC | -0.159
TCCAGGGA | -0.244
ATCCCGTG | 0.108
CCTGTCAA | 0.154

Sequence | PBM E-score
ACTCAGGC | 0.00992
GTTATGTA | 0.419
AGCACCCT | -0.222
GGCATGGA | -0.113
ATCCATTG | -0.0122
AGCGCCAG | 0.00291
CTGAATGC | -0.227
ATGCCTGA | -0.15
ATTAGCCC | -0.166
CTCCCAAG | -0.0969
GTCCTTCA | -0.0496
CATCCGTC | -0.217
CGACAATA | 0.203
AGATTGCC | -0.187
GTGATACA | 0.124
TCGCATAA | 0.0817
TACCCCAA | -0.191
CCCCAGCG | -0.28
CACTCGGG | -0.223
AAACCCTG | 0.051
AAAATTAG | 0.00411
AGGTGCTG | -0.197
CATACAAA | 0.221
AACGAGAC | 0.0285
AATACAGT | 0.166

Sequence | PBM E-score
CTCACGTA | 0.00392
GACCTGCA | -0.192
ACATACAA | 0.325
CGAACGTC | -0.153
AAAGGGTT | -0.0891
AAGTTTAA | 0.132
GACACGGC | 0.223
GGAAGCAA | -0.0502
ATCATTTA | 0.231
CATAAGGC | -0.0696
ATTGCGCG | 0.177
ATGTGGAG | -0.112
GAATGCCC | -0.238
TCGCAGCA | 0.00533
CCAGATTC | -0.361
CACGCCCG | 0.0469
GAAACATC | 0.0475
AAAGATAT | 0.0507
ACCTAATC | 0.108
AGTAGAGG | -0.226
GCCACGAC | -0.0179
AGTTACGC | 0.202
TAACTGTA | 0.116
CTGACCAG | -0.201
ATAGACGG | -0.202

Sequence | PBM E-score
AGCGAGAG | -0.142
CTACATCA | 0.222
GAAAGGAA | -0.149
AGGTGATG | 0.00666
TAGTATCA | 0.19
GCACTGTA | 0.0153
ATTGGAAC | 0.0527
AATGACCT | 0.0504
GTGTGGAA | 0.129
CCATGGAA | 0.0299
CTCTGTTA | 0.23
AACAGCCA | 0.125
CTCTAATA | 0.154
ACCTCGTG | 0.182
ACTTCGCC | -0.0363
ATGTCGTC | 0.0787
GGGCCTAA | -0.264
AAGGATAC | -0.00296
CGAGTTCA | 0.147
CCACGATA | -0.11
CCTTTACA | 0.448
ACGACCGG | -0.221
AAACTGAA | 0.0485
ACTTATTG | -0.0347
AAGGGTTC | -0.253

Sequence | PBM E-score
ATTATGTG | 0.17
CACTGTCA | 0.0458
CTCGCCTA | -0.237
CGCGAGAA | -0.107
CAGGAAAA | 0.112
CCCGCAAA | 0.0485
TACCTAGA | 0.0163
AAACAAAA | 0.178
ACAAAAAA | 0.187
AACTAGGG | -0.094
CAGAAGGA | -0.358
GTCCATGA | -0.066
GCGCGACC | -0.0639
AACCTAAG | -0.0401
TTCTTAAA | 0.0653
AGCCCTCG | -0.0958
CAGTTAAA | 0.142
AACAGATG | 0.0895
CCGTATGC | -0.273
GCGATAAC | 0.0891
CATGTGAG | 0.0552
GACGACGA | -0.259
GGAAATCC | -0.143
AAAAACCA | 0.121
ACGGACTG | -0.0969

Sequence | PBM E-score
CGCCTGCA | -0.237
CGAACTAA | 0.108
ATACGTCG | 0.0982
CGACCATA | -0.177
AGCCCGCT | -0.292
AAAGACAT | 0.0187
TACAAATA | 0.286
AGGGGCAT | -0.0545
AAAGTTAC | 0.204
CATTTGTA | 0.284
CGGACCAC | -0.104
AGACTGAG | -0.279
GGTATTAA | 0.083
CCTGATCA | -0.335
AAAGGATC | -0.0701
CGTCATCC | -0.102
ACGGTCAA | 0.0638
CCGATTCG | -0.0146
CCTGGGAA | -0.0441
CATTACGA | 0.214
AACGATAA | 0.0196
ATAACCCG | -0.197
GCACAAAA | 0.168
ACCCTCTC | -0.21
CACCATCG | -0.24

Sequence | PBM E-score
GACTGTAC | -0.0265
GTCCCTAA | -0.0373
CTCGCAAA | -0.0524
AGGACGTC | -0.0353
AGCAGAGC | -0.151
GCCTTGCA | -0.18
ATAAAGGG | -0.169
ACAATGCC | 0.0996
AGCATCTC | -0.281
CCTCTAAA | -0.127
AGAGCGGA | -0.141
AATCACCT | 0.102
ACCAGTAG | 0.0137
CTTGGATA | -0.0407
AAGGGTCT | -0.197
GTTTAGGA | -0.179
ATTGGCGA | -0.127
AGTGTGAG | -0.162
CTGTACGA | 0.0646
CAAATCCA | -0.00845
CGCCACCG | -0.296
AAGGACTT | -0.136
ATCTCATC | -0.105
AGCCTCAT | -0.227
AAACTCTC | 0.0417

Sequence | PBM E-score
CGAACCCA | -0.05
CATGGTTA | 0.27
GACACTAC | 0.125
CTAGAATA | 0.168
ATACTCGC | 0.0126
GATCACGA | -0.199
CCCTACGG | -0.236
CGCGTAGC | 0.265
GGCGTAGA | 0.0109
CGAGCTCG | 0.168
CTAACACC | 0.153
AATTCGCA | -0.0405
GGGCTCAA | -0.172
GATGCCGC | -0.269
GGATCCAC | -0.284
CAGAGGTA | 0.0532
GTCTTCAA | -0.0238
ACTAGCGA | -0.0981
AAACGGCA | 0.0925
ATACATCA | 0.334
CAGACATA | 0.147
CCGCGGAG | -0.238
CCTTCAGC | -0.259
AGTCTAGA | -0.196
TCCAAGGA | -0.173

Sequence | PBM E-score
ATTGAGTG | 0.0928
GATCAGGC | -0.263
TACTCCAA | -0.0939
AACGAAGG | -0.3
TCTTCGCA | 0.133
CTTCAGTC | -0.203
ACGTCAAC | 0.194
GATCGACA | 0.124
CGTGCTAA | 0.223
CCATTTGA | -0.144
ACCCTCCC | -0.22
GTCGCAGA | -0.169
AATCTTGT | 0.201
AAATGTAG | 0.113
TACAATCA | 0.274
AAGAGATA | 0.00934
ATTCGTAC | 0.136
ACAGCTCC | -0.092
GATGTTCC | -0.0446
GCTGCCCA | -0.252
AGCGTTGG | -0.0565
AAGATGGA | -0.256
GCTAATCA | 0.0512
ATTCGCTC | -0.0478
CGAAGTCA | -0.15

Sequence | PBM E-score
GCGCTGGA | -0.402
TATTGCCA | -0.0146
ATCGCAAA | 0.0675
GAGCACTA | -0.0459
AGCCGCAT | -0.0538
ACATACTA | 0.253
CTCTAGAC | -0.116
ATGAAAAG | -0.0907
AACGCTTC | 0.119
AACCACCA | -0.0618
ACCGCGGG | -0.145
CTAAAGAA | 0.178
CATCTCGG | -0.205
ATATGACG | 0.105
AAATCGTC | -0.0199
ACCACAGA | -0.0813
AGAGCCAG | -0.181
CACCATTA | -0.0406
ACTGCTTA | 0.0138
ATTGCACC | 0.0314
CCTTGATA | 0.0589
ATATTAAT | 0.217
GGCGCTTA | -0.252
ATCTAGCA | 0.0441
ACGACAAC | 0.286

Sequence | PBM E-score
AGCGCTTA | -0.0782
ATGTGAAC | 0.148
TAAATTAA | 0.211
AGAGGCTG | -0.0969
AAAGTAGG | 0.146
AACTCTCT | -0.107
GCCTTGGA | -0.184
GTTGACTA | -0.0215
ACTGCCCG | 0.0627
TAGGCCCA | -0.14
CTCAAACA | 0.243
ATATCTGC | 0.015
ACGTCCCT | 0.163
ACGATAAA | 0.108
CCTCAGAC | -0.217
ACAATACC | 0.201
GGGGTACA | -0.0743
CCAAATCG | -0.0556
AACAGGTG | 0.184

Reference: the supplement of paper PMC3334620
